Data on 46 sequences can be found in the supplement of paper PMC10338343.

± gives the standard deviation. Whole data set: some 3,700 sequences, median “pre-steady-state target cleavage rate” near 0.02, cut for the highest 2% near 0.23. This is a selection; strong and weak results do not stand in their true shares.

For this assay, the system named is MILI (PIWIL2) piRISC loaded with Kctd7 piRNA (26 nt). The experiment in a line: pre-steady-state target cleavage rate (min^-1); MIWI and MILI are mouse PIWI proteins and EfPiwi is from a freshwater sponge; tags in brackets are library labels; higher = faster piRNA-guided slicing of the target. The conditions noted are these: guide: Kctd7 piRNA 5'p-UGUUAAUCUCUCAGAGAAGGUGACAG; auxiliary factor: 500 nM mouse GTSF1. An outline of the steps: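 Cleave-'n-Seq reactions paired 0.1 nM transcribed, DNA-blocked target RNA library with 1 nM active affinity-purified piRISC holding one synthetic guide, plus or minus 500 nM GTSF1 partner protein, in HEPES–potassium acetate buffer at 33 °C for 0–8 or 0–960 min. After sequencing of uncleaved targets and normalisation to depth and weakly complementary targets, the pre-steady-state cleavage rate was taken from a burst-and-steady-state fit. Three trials were pooled, and k3 was capped at 0.0001 min^-1.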
On to UAGUGUCUCACCUUCUCUGAGAGAUUAUCA, for which the “pre-steady-state target cleavage rate” value worked out at 0.173 ± 0.033.
UAGUCUGUCACCUACUCUGAGUGAUUAACA: the “pre-steady-state target cleavage rate” value is 0.00273 ± 0.0026.
Take UAGUGAGUGACCUUCUCUCAGAGAUUAACA: the “pre-steady-state target cleavage rate” value was 0.0396 ± 0.0089.
Turning to UAGUGAGUCAGCUUCUCUGAGUGAUUAACA, the “pre-steady-state target cleavage rate” value is 0.00382 ± 0.0032.
For the sequence UAGUGUGUCACCCUUCUCUGAGAGAUUAACA, the “pre-steady-state target cleavage rate” value was 0.104 ± 0.016.
UAGUGACUCACCAUCUCUGAGAGAUUAUGA: the “pre-steady-state target cleavage rate” value was found to be 0.00533 ± 0.0031.
Regarding UAGUCUGUCACCUUCUCAGAGAGAUUUACA, the “pre-steady-state target cleavage rate” value came out at 0.179 ± 0.038.
As to UAGUGAGUCACCUUCUGUGAGAGAUAAACA, the “pre-steady-state target cleavage rate” value turned out to be 0.028 ± 0.0077.
For the sequence UAGUGAGUCACCUUCUCUGCGAGAUUAACA, the “pre-steady-state target cleavage rate” value is 0.0952 ± 0.015.
In the case of UAGUGACAGUCCUUCUCUAAGAGAUUAACA, the “pre-steady-state target cleavage rate” value was determined as 0.0523 ± 0.012.
As to UAGUGACAGUGGAAGACAGACAGAUUAACA, the “pre-steady-state target cleavage rate” value is below 0.0001.
The same measure for UAGUGACAGUGGAAGUCUGAGAGAUUCAACA: below 0.0001.
The same measure for UAGUGUCUCACCAUCUCUGAGAGAUUAACA: 0.158 ± 0.014; for UAGUGAGUCACCUUCUCUGAGAGAAAAACA: 0.0915 ± 0.023; for UAGUGACACACCUUCUCUGAGAGAUCUAACA: 0.128 ± 0.041.
With UAGUGAGUCACCUUCUCUCAGAGAAUAACA the figure was 0.00872 ± 0.004.
As for UAGUGUGUCACCUUCUGACAGAGAUUAACA, the “pre-steady-state target cleavage rate” value turned out to be 0.0232 ± 0.0081.
With UAGUCUGUCUCGUUCUCUGAGAGAUUAACA, the “pre-steady-state target cleavage rate” value is 0.159 ± 0.0079.
The same measure for UAGUGACAGACCUUCUCAGAGAGAUUAACA: 0.0341 ± 0.0075; for UAGUGACUCACCUUCUCUGAGACUUUAACA: 0.013 ± 0.0046; for UAGUGACUCACCUACUCUGAGAGAUUUACA: 0.0886 ± 0.013.
Consider UAGUGAGUCACCUUCUCUGUCUGAUUAACA, for which the “pre-steady-state target cleavage rate” value amounted to 0.00417 ± 0.0037.
In the case of UAGUGACUCAGCAUCUCUGAGAGAUUAACA, the “pre-steady-state target cleavage rate” value worked out at 0.0133 ± 0.0029.
With UAGUGACUCACCAACUCUGAGAGAUUAACA, the “pre-steady-state target cleavage rate” value was 0.0544 ± 0.0074.
As to UAGUGUGACUCCUUCUCUGAGAGAUUAACA, the “pre-steady-state target cleavage rate” value came out at 0.151 ± 0.011.
With UAGUGUCUCACCUUCUCUGAGUGAUUAACA, the “pre-steady-state target cleavage rate” value is 0.005 ± 0.0038.
With UAGUCUGUCACCAUCUCUGUGAGAUUAACA, the “pre-steady-state target cleavage rate” value was found to be 0.0404 ± 0.0047.
UAGUGACAGUCCUUCUCUGAUAGAUUAACA: the “pre-steady-state target cleavage rate” value amounted to 0.0206 ± 0.0043.
Consider UAGUGACUGACCUUGUCUGAGAGAUUAACA, for which the “pre-steady-state target cleavage rate” value worked out at 0.111 ± 0.033.
As for UAGUGACAGUCCUUCUCUGAGAGAUUCACA, the “pre-steady-state target cleavage rate” value is 0.0193 ± 0.0065.
With UAGUGAGUCACCUUCUCUGAGAGAUUAAAA the figure was 0.135 ± 0.037.
As for UAGUGACACACGUACUCUGAGAGAUUAACA, the “pre-steady-state target cleavage rate” value was determined as 0.0246 ± 0.0043.
For UAGUGAGUCACCUUGUCUGAGAGAUUAUCA, the “pre-steady-state target cleavage rate” value amounted to 0.0297 ± 0.013.
In the case of UAGUGUCUCACCUUCUCUGUGAGAUUAACA, the “pre-steady-state target cleavage rate” value was determined as 0.0376 ± 0.006.
Consider UAGUGACUCUCCUUCUCUGUGAGAUUAACA, for which the “pre-steady-state target cleavage rate” value was found to be 0.0317 ± 0.0023.
With UAGUCUGUCACGUUCUGUGAGAGAUUAACA, the “pre-steady-state target cleavage rate” value was found to be 0.0502 ± 0.0053.
With UAGUGACAGUCCUUCUCUGUGAGAUUAACA the figure was 0.033 ± 0.0057; with UAGUGACUCACGUUCUCUGAGACAUUAACA, 0.00354 ± 0.0025; with UAGUGACUCACCUACACUGAGAGAUUAACA, 0.0735 ± 0.0063.
In the case of UAGUGACAGUCCUUCUCUGAGAGAUUAAAA, the “pre-steady-state target cleavage rate” value amounted to 0.00926 ± 0.0045.
Take UAGUGACACUCCUUCUCUGAGACAUUAACA: the “pre-steady-state target cleavage rate” value came out at 0.0456 ± 0.0059.
With UAGUGAGUCACCUUCUGAGAGAGAUUAUGA the figure was 0.0241 ± 0.0098.
UAGUGAGUCUCCUUCUCUGAGACAUUAACA: the “pre-steady-state target cleavage rate” value amounted to 0.0525 ± 0.0096.
With UAGUGUGUCACCUUCACUGACAGAUUAACA, the “pre-steady-state target cleavage rate” value stood at 0.062 ± 0.0083.
The same measure for UAGUGACACAUCCUUCUCUGAGAGAUUAACA: 0.101 ± 0.017; for UAGUGAGUCACCAUCUCUGAGUGAUUAACA: 0.00578 ± 0.0041.
